This is an account of results in PubChem BioAssay AID463173 (ICCB-Longwood Screening Facility, Harvard Medical School, 2010).

Among all 52,000 compounds or so, about 1,700 (3.3%) were called active. No stated cut-off is given here; in the data, active means survival mostly below about 52% (no sharp cut-off); inactive means mostly above about 56%. The list shows a part of the results.

The test deals with Wild type. The test is described as follows: S. aureus survival, RN4220 and DeltatarO strains – OD600, teichoic acid synthesis inhibitors, primary screen (AID 463173). Conditions: S. aureus RN4220 wild type/DeltatarO growth, OD600, 18 h, hits give low values, screened at 18.75 µg/mL (by protocol).
With `Cc1cc(Br)ccc1NC(=O)c1cc2c(s1)-c1ccccc1SC2`, the survival is inactive: 78%.
For `O=C(CCCn1c(=O)c2cccn2c2cccnc21)NCCc1ccc(Cl)cc1` the value was inactive: 70%.
Take `CCOC(=O)N1CCc2c(sc3c2c(=O)n(-c2ccc(Cl)cc2)c(=O)n3CC(=O)c2ccc(F)cc2)C1`: the survival was inactive: 91%.
For `COc1ccc(NS(=O)(=O)c2nnc(NC(=O)c3ccccc3F)s2)cc1` the value was inactive: 81%; for `COc1ccccc1NC(=O)CSc1nc2c(oc3ccccc32)c(=O)n1-c1ccc(C)cc1`, inactive: 104%; for `CCOC(=O)Nc1nnc(-c2ccccc2)s1`, inactive: 126%.
`CC(C(=O)N(C(C)C)C(C)C)N1CCN(C)CC1` (stereo unspecified): the survival is inactive: 93%.
The figure for `COc1ccc(-n2ccnc(NCCc3ccc(S(N)(=O)=O)cc3)c2=O)cc1` is inactive: 53%; for `COc1ncnc(Cl)c1N` it is inactive: 100%; for `COc1cc(/C=C/c2nc(C#N)c(NC3CCCCC3)o2)cc(OC)c1OC` it is inactive: 70%.
With `O=C(/C=C/c1cn(CC(O)CN2CCCCCC2)c2ccccc12)c1ccccc1` (stereo unspecified), the survival is inactive: 67%.
`Cc1ccc(CNc2nc3c(S(=O)(=O)c4ccccc4)nnn3c3ccsc23)cc1`: the survival was inactive: 98%.
The figure for `CCNC(=O)CCSc1nnc(-c2ccc(O)cc2)o1` is inactive: 85%; for `COc1cccc(CNC(=O)Nc2cc(C(=O)NCc3cccc(F)c3)ccc2N2CCCC2)c1` it is inactive: 54%.
The figure for `CCC(Oc1ccc(F)cc1)C(=O)Nc1cc(-c2ccc(C)cc2)no1` (stereo unspecified) is inactive: 64%.
The figure for `CCN(CC)c1ccc(NC(=O)c2cc(CN3CCCC3)on2)c(C)c1` is inactive: 73%; for `CCOc1cc(CNC(=O)c2ccc(NC(=O)c3nsc4ccccc34)cc2)ccc1OC` it is inactive: 99%.
Regarding `Cn1c(=O)c2ccccc2n2c(CCC(=O)N3CCN(c4cccc(Cl)c4)CC3)nnc12`, the survival was inactive: 84%.
The figure for `CCOc1ccc(NC(=O)CC2C(=O)N(c3cccc(OC)c3)C(=O)N2C2CCCCC2)cc1` (stereo unspecified) is inactive: 80%.
With `CCN1CCN(c2csc3ccc(Cl)cc3c2=O)CC1`, the survival was inactive: 99%.
For `Cc1cccc(NC(=O)CSc2nc(-c3cccs3)cc(C(F)(F)F)c2C#N)c1` the value was inactive: 93%.
The figure for `CC(=O)N1CCN(CCN2C(=O)C3C4c5ccccc5C(c5ccccc54)C3C2=O)CC1` (stereo unspecified) is inactive: 103%; for `COc1ccc(Cl)cc1NC(=O)C(C)n1nnc2sc3c(c2c1=O)CCCC3` (stereo unspecified) it is inactive: 78%.
For `COc1ccc2c(C)c(CC(=O)NCCc3ccccc3)c(=O)oc2c1OC` the value was inactive: 86%; for `CC1(C)CC(=O)c2cc(C(=O)NC(C)(C)C)c(=O)n(-c3ccccc3)c2C1`, inactive: 111%; for `Cc1cc(C)cc(N2C(=O)CC(c3ccc(C(F)(F)F)cc3)C3=C2COC3=O)c1` (stereo unspecified), inactive: 80%.
Turning to `COc1ccccc1C(=O)Nc1cc(-c2cccc(Br)c2)nn1-c1ccccc1`, the survival is inactive: 115%.
For `CCOc1ccc(NC(=O)Cn2nnc(C(=O)OC)c2C(=O)OC)cc1` the value was inactive: 84%; for `Cc1ccc(C(=O)NCC(=O)OCc2cc(=O)n3nc(C4CCCCC4)sc3n2)cc1`, inactive: 68%; for `COc1ccc(Cn2c(SCC(=O)NCc3ccccc3)nc3ccccc32)cc1`, inactive: 128%.
With `Cc1cc(C)n2nc(-c3ccccc3)cc2n1`, the survival is inactive: 116%.
The figure for `Cc1ccc2c(c1)C(c1ccc(F)cc1)N(C(=O)C(C)C)CC(=O)N2` (stereo unspecified) is inactive: 95%; for `COc1ccc(C(=O)NC2(C(F)(F)F)C(=O)NC(C)=C2C#N)cc1` (stereo unspecified) it is inactive: 79%.
For `O=c1oc2ccc3ccccc3c2cc1-c1nnc(Nc2ccccc2)s1`, the survival is inactive: 71%.
For `CCc1cccc(NC(=O)Cn2nc(CC)n3c(cc4cc(C)ccc43)c2=O)c1` the value was inactive: 76%; for `Cc1ccc(CCNC(=O)c2sc3ncccc3c2-n2cccc2)cc1`, inactive: 101%.
For `COc1cc(NC(=O)c2nc3cc(C)c(C)cc3n(C)c2=O)cc(OC)c1OC` the value was inactive: 77%; for `COc1cccc(NC(=O)CSc2nc(O)c(C/C=C/c3ccccc3)c(=O)[nH]2)c1`, inactive: 71%.
The figure for `COc1ccc(N2CCN(S(=O)(=O)c3ccc(-c4cc(C(F)(F)F)on4)s3)CC2)cc1` is inactive: 64%.
With `Cc1cc(S(=O)(=O)Nc2cccc(-c3ccc(N4CCOCC4)nn3)c2)c(C)cc1Cl`, the survival was inactive: 59%.
For `CC(=O)Nc1ccc(OCC(O)Cn2ccnc2)cc1` (stereo unspecified) the value was inactive: 119%.
For `CCC(=O)Nc1cc(C(=O)NCc2ccc(C)cc2)ccc1S(=O)(=O)c1ccc(C)cc1` the value was inactive: 113%; for `CCc1cccc(C)c1Nc1c(-c2ccc(N(C)C)cc2)nc2ncccn12`, inactive: 134%.
For `Cc1cccc(OCc2ccc(-c3nc(C#N)c(N4CCN(c5ccccc5)CC4)o3)o2)c1` the value was inactive: 132%; for `Cc1ccc(C)c(CN2C(=O)c3ccccc3Sc3ccc(C(=O)NCc4ccco4)cc32)c1`, active: -1%.
Take `Cc1cc(C)c2oc(C(=O)Nc3c(C(=O)c4ccc(F)cc4)oc4ccccc34)cc(=O)c2c1`: the survival was inactive: 118%.
For `CC1CCC(NC(=O)C2(C)Cc3ccccc3C(=O)N2Cc2ccccc2Cl)CC1` (stereo unspecified) the value was inactive: 37%; for `CCN(CC)c1ccc(NC(=O)Cn2c(C)c3cnn(-c4ccccc4)c(=O)c3c2C)c(C)c1`, inactive: 91%.
For `CCC(C(=O)N1CCN(c2ccccn2)CC1)c1ccccc1` (stereo unspecified) the value was inactive: 115%.
The figure for `COC(=O)c1c(-c2cccs2)csc1NC(=O)c1cc(OC)cc(OC)c1` is inactive: 79%; for `Cc1ccc(CNC(=O)C(CC(C)C)N2Cc3ccccc3C2=O)cc1` (stereo unspecified) it is inactive: 136%.
For `O=C(NCCSc1c(-c2ccc(Br)cc2)[nH]c2ccccc12)c1ccc(S(=O)(=O)N2CCOCC2)cc1`, the survival was inactive: 84%.
The figure for `CCC(C)(C)C(=O)Nc1nnc(COC)s1` is inactive: 122%.
The figure for `Clc1cccc(-n2ncc3c(NCCCc4ccccc4)ncnc32)c1` is inactive: 69%.
The figure for `Cc1cc(C)cc(NC(=O)C(Cc2ccccc2)N2Cc3ccccc3C2=O)c1` (stereo unspecified) is inactive: 72%; for `CCN(C(=O)Cn1nc(Cc2cccnc2)c2ccccc2c1=O)c1cc(C)ccc1C` it is inactive: 83%.
As to `Cc1ccccc1C(=O)Nc1nnc(S(=O)(=O)N2CCCc3ccccc32)s1`, the survival was inactive: 97%.
Take `Cc1ccc(-n2c(=O)c3sccc3n(Cc3cc(=O)n4ccccc4n3)c2=O)cc1`: the survival was inactive: 73%.
The figure for `COc1ccc(C(=O)N2CCC(C(=O)Nc3ccc(OC)cc3OC)CC2)cc1` is inactive: 77%; for `Cc1cccc(-c2cc(NC(=O)COc3ccccc3F)n(-c3ccccc3)n2)c1` it is inactive: 91%; for `Cc1nnsc1C(=O)Oc1ccccc1Cl` it is inactive: 88%.
The figure for `O=C1C(c2ccc(C(F)(F)F)cc2)=C(Nc2ccc(Cl)cc2)c2ccccc21` is inactive: 111%.
The figure for `COc1cc(N(C(=O)Cn2nnc3ccccc32)C(C(=O)NCC2CCCO2)c2cccn2C)ccc1-n1cnnn1` (stereo unspecified) is inactive: 105%; for `CCn1c(C(=O)Nc2cc(C)cc(C)c2)cc2sc(Cl)cc21` it is inactive: 119%.
In the case of `COc1ccc(C(=O)N=c2sc3cc(Cl)ccc3n2C)cc1`, the survival is inactive: 70%.
The figure for `Cc1ccc(NC(=O)CSc2nnc(-c3cc4occc4n3C)n2-c2ccccc2C)cc1F` is inactive: 68%; for `CC1CCc2c(nc3ncnn3c2NCCN(C)C)C1` (stereo unspecified) it is inactive: 102%.
As for `CSc1ccccc1NC(=O)CCS(=O)(=O)c1nc(-c2cccs2)cc(C(F)(F)F)n1`, the survival was inactive: 83%.
The figure for `COC(=O)c1csc(N)n1` is inactive: 112%; for `CCN(CC)CCOC(=O)c1ccc(NC(=O)CCn2c(=O)oc3ccccc32)cc1` it is inactive: 69%.
The figure for `CCN(CC)C(=O)Cn1cc(C(=O)C(C)C)c2ccccc21` is inactive: 115%.
The figure for `N#Cc1ccccc1NC(=O)C(=O)NCC(c1cccnc1)N1CCc2ccccc2C1` (stereo unspecified) is inactive: 82%.
On to `CCC1=NN(C(=O)C(C)C)C(O)(C(F)(F)F)C1` (stereo unspecified), for which the survival is inactive: 105%.
With `COC(=O)C1C(=O)C2=C(CC1C)Nc1ccccc1NC2c1ccc(C)cc1` (stereo unspecified), the survival is inactive: 111%.
For `CCCCN(C)c1ncnc2c1cnn2-c1cccc(Cl)c1` the value was inactive: 95%.
For `O=C(Nc1cccc(F)c1)N1C2CCC1CC(O)(c1cccnc1)C2` (stereo unspecified), the survival is inactive: 109%.
For `COc1ccc(OC)c(CCNC(=O)C(C)n2nc(C)c3c(C)n(-c4ccc(C)cc4)nc3c2=O)c1` (stereo unspecified) the value was inactive: 88%; for `CCOc1ccccc1NC(=O)C1CCCN(S(=O)(=O)c2ccc3c(c2)CCCN3C(C)=O)C1` (stereo unspecified), inactive: 66%.
For `CCC(=O)N1CCc2cc(S(=O)(=O)NCCC(=O)Nc3cccc(C)c3C)ccc21` the value was inactive: 117%.
The figure for `Cc1cc(SCC(=O)NCc2ccccc2)nc(=O)[nH]1` is inactive: 70%; for `COc1cccc(CNc2ccc3c(c2)ncn3C)c1OC` it is inactive: 121%.
As for `CN(C)C(=O)Cn1c2[n+](c3ccccc31)CC(O)CS2` (stereo unspecified), the survival is inactive: 103%.
The figure for `CCc1ccc(S(=O)(=O)c2nnn3c2nc(Nc2cccc(C)c2C)c2sccc23)cc1` is inactive: 71%; for `O=C(NCc1ccccc1Br)c1ccc(-n2cnc3cccnc32)cc1` it is inactive: 152%; for `COc1ccc(N(CC(=O)Nc2ccc(Cl)cc2C)S(=O)(=O)c2ccccc2)c(OC)c1` it is inactive: 113%.
The figure for `COc1cc(-c2nnc(SCC(=O)N3CCCc4ccccc43)o2)cc(OC)c1OC` is inactive: 73%; for `CCCN(C(=O)CCn1cnc2onc(-c3ccc(F)cc3)c2c1=O)c1ccccc1C` it is inactive: 72%.
For `Cc1cc(C)cc(C(=O)Nc2c3c(nn2-c2ccccc2C)CS(=O)(=O)C3)c1` the value was inactive: 127%; for `CCOC(=O)c1c(-c2ccccc2)csc1NC(=O)c1cc(-c2cccc(OC)c2)on1`, inactive: 72%.
As to `Cc1ccc(Cl)cc1N1CCN(C(=O)Cn2nc(C)n3c(cc4sccc43)c2=O)CC1`, the survival is inactive: 122%.
Consider `O=C(Cn1nc2c(cc1=O)CCCC2)NCc1ccccc1Cl`, for which the survival is inactive: 148%.
